Laboratory results published in the GPR68 mutational scans of Howard et al. (2025).
Scores whose standard error is large were omitted. Not listed are two conditions whose scores span a narrow range. Read del as a deletion of the residues named and ins as an insertion between two positions. For some of these results: The concentration of ogerin is not given here.

B1: GPR68, Q15743 (parent)
chain: MGNITADNSSMSCTIDHTIHQTLAPVVYVTVLVVGFPANCLSLYFGYLQIKARNELGVYLCNLTVADLFYICSLPFWLQYVLQHDNWSHGDLSCQVCGILLYENIYISVGFLCCISVDRYLAVAHPFRFHQFRTLKAAVGVSVVIWAKELLTSIYFLMHEEVIEDENQHRVCFEHYPIQAWQRAINYYRFLVGFLFPICLLLASYQGILRAVRRSHGTQKSRKDQIQRLVLSTVVIFLACFLPYHVLLLVRSVWEASCDFAKGVFNAYHFSLLLTSFNCVADPVLYCFVSETTHRDLARLRGACLAFLTCSRTGRAREAYPLGAPEASGKSGAQGEEPELLTKLHPAFQTPNSPGSGGFPTGRLA

Legend:
[1] = variants of: B1; assay: cAMP reporter score (Enrich2 score, wild type = 0); higher = more signal; HEK293T, FACS bins
[2] = variants of: B1; assay: surface expression score (Enrich2 score, wild type = 0); higher = more signal; HEK293T, FACS bins

Row | Variant | cAMP reporter score ([1]; pH 5.5) | cAMP reporter score ([1]; pH 6) | cAMP reporter score ([1]; pH 6, modulator: ogerin) | cAMP reporter score ([1]; pH 6.5, modulator: ogerin) | surface expression score [2]
1 | E55F | -1.32 | -0.505 | -1.56 | -1.02 | 0.533
2 | E55G | -0.791 | -0.535 | -0.528 | -1.18 | 1.58
3 | E55H | -1.12 | -1.04 | -1.24 | -1.44 | 0.554
4 | E55I | -1.33 | -0.439 | -0.956 | -0.772 | 0.785
5 | E55K | -0.533 | -0.211 | -1.05 | -1.15 | -0.494
6 | E55L | -0.898 | -0.317 | -1.05 | -1.2 | 1.43
7 | E55M | -1.38 | -0.767 | -1.52 | -1.22 | -0.195
8 | E55N | -0.587 | -0.081 | -0.818 | -0.551 | 2.73
9 | E55P | -0.098 | 0.019 | -0.01 | 0.007 | 1.68
10 | E55Q | -0.816 | -0.426 | -1.59 | -1.33 | 2.01
11 | E55R | -0.086 | -0.546 | -0.671 | -0.386 | 2.26
12 | E55S | -0.086 | -0.042 | -0.52 | -0.546 | 1.93
13 | E55T | -0.485 | -0.715 | -0.882 | -0.593 | 1.38
14 | E55V | -0.499 | 0.012 | -0.911 | -0.411 | 2.31
15 | E55W | -0.966 | -0.624 | -1.1 | -0.56 | 3.04
16 | E55Y | -0.773 | -0.372 | -0.844 | -0.538 | 2.33
17 | E55_G57del | -0.704 | -0.039 | -0.606 | 0.247 | -2.38
18 | E55_L56del | -1.25 | -1.46 | -2.26 | -1.47 | -2.21
19 | E55_L56insG | -1.68 | -1.12 | -2.27 | -1.25 | -0.101
20 | E55_L56insGS | 0.357 | -0.275 | -0.308 | 0.543 | 2.86
21 | E55del | -1.81 | -0.854 | -1.62 | -1.34 | -2.34

Row | Variant | cAMP reporter score ([1]; pH 5.5) | cAMP reporter score ([1]; pH 6) | cAMP reporter score ([1]; pH 6, modulator: ogerin) | cAMP reporter score ([1]; pH 6.5, modulator: ogerin) | surface expression score [2]
22 | L56A | -1.31 | – | -1.52 | -0.76 | -2.43
23 | L56C | -1.13 | -1.32 | -1.55 | -1.06 | -2.3
24 | L56D | -0.79 | – | – | -1.7 | -1.83
25 | L56E | -2.07 | -1.32 | -0.938 | -0.751 | -2.4
26 | L56F | -0.246 | 3.48 | 0.373 | 1.75 | -2.32
27 | L56G | -1.3 | -0.439 | -1.5 | -1.02 | -2.51
28 | L56H | -1.14 | 0.349 | -1.74 | -1.75 | -1.69
29 | L56I | 0.338 | -0.416 | 0.635 | -0.908 | 0.417
30 | L56K | -0.921 | -1.69 | -0.808 | -0.622 | -2.64
31 | L56M | 0.676 | 1.39 | -0.099 | 1.13 | -0.795
32 | L56N | -1.09 | – | -1.41 | -0.809 | –
33 | L56P | -2.15 | -1.09 | -1.2 | -1.14 | -1.92
34 | L56Q | -1.32 | -0.622 | – | -0.631 | -3.35
35 | L56R | -2.11 | -0.885 | -1.59 | -1.09 | -1.53
36 | L56S | -1.49 | -0.703 | -1.35 | -1.33 | -1.83
37 | L56T | -1.38 | -0.938 | -1.82 | -0.858 | -2.44
38 | L56V | -1.25 | – | -0.848 | -0.088 | 0.3
39 | L56W | 0.093 | 0.228 | -0.42 | -0.143 | -1.85
40 | L56_G57insG | -0.288 | -0.948 | -1.68 | -0.578 | -2.5
41 | V58_Y59insGSG | -1.34 | -1.41 | – | -0.755 | -2.15
42 | V58del | -0.688 | -1.76 | -1.22 | -1.49 | -1.66

Row | Variant | cAMP reporter score ([1]; pH 5.5) | cAMP reporter score ([1]; pH 6) | cAMP reporter score ([1]; pH 6, modulator: ogerin) | cAMP reporter score ([1]; pH 6.5, modulator: ogerin) | surface expression score [2]
43 | Y59_L60del | -0.949 | -2.04 | – | -1.03 | -2.28
44 | Y59del | -1.06 | – | -1.37 | – | –
45 | L60_C61insG | -1.01 | -1.23 | -1.08 | -0.418 | -2.99
46 | L60_C61insGS | -0.485 | -0.664 | -1.02 | -0.441 | –
47 | L60_N62del | -0.851 | -0.939 | -2.13 | -1.12 | -2.96
48 | C61_N62del | -1.04 | -0.614 | -2.03 | -0.967 | -1.87
49 | C61_N62insGS | -1.37 | -1.02 | -2.62 | -1.52 | -2.55
50 | C61_N62insGSG | -1.65 | -1.42 | -0.351 | -0.563 | -3.71
51 | C61del | -1.29 | -1.21 | -1.73 | -1.24 | -3.03
52 | N62_L63del | -1.05 | -1.55 | -1.51 | -0.945 | -2.46
53 | N62del | -1.57 | -1.14 | -0.63 | -0.805 | -2.27
54 | L63A | -0.175 | 1.58 | -0.971 | -1.01 | –
55 | L63C | -0.91 | -0.692 | -1.41 | -1.25 | -2.24
56 | L63D | -1.6 | – | -1.29 | -1.64 | -3.08
57 | L63E | -1.15 | -1.49 | -1.78 | -2.01 | -2.15
58 | L63F | -1.89 | – | -0.823 | -1.87 | -1.39
59 | L63G | -1.81 | – | -0.994 | -0.151 | -2.51
60 | L63H | -0.948 | -1.49 | -1.8 | -1.16 | -2.64
61 | L63I | -0.08 | -0.152 | -0.281 | -0.406 | 0.3
62 | L63K | -0.644 | -0.321 | -0.889 | -0.963 | 1.66
63 | L63M | -0.575 | 0.142 | -0.541 | -0.531 | -1
